The full ranking holds about 33,000 sequences; the median of “E-score (-0.5 to 0.5)” is about -0.043, and the highest 2% start at about 0.37. The list shows a part of the results.
The sequences below were run against T1, Upc2 (UniProt Q12151) (assay: PBM E-score (8-mer binding enrichment) (E-score (-0.5 to 0.5)); higher = stronger / more preferred TF binding; most listed sequences are background and not binding sites). Conditions: protein concentration: 200 nM; construct: GST-full length.
T1 sequence: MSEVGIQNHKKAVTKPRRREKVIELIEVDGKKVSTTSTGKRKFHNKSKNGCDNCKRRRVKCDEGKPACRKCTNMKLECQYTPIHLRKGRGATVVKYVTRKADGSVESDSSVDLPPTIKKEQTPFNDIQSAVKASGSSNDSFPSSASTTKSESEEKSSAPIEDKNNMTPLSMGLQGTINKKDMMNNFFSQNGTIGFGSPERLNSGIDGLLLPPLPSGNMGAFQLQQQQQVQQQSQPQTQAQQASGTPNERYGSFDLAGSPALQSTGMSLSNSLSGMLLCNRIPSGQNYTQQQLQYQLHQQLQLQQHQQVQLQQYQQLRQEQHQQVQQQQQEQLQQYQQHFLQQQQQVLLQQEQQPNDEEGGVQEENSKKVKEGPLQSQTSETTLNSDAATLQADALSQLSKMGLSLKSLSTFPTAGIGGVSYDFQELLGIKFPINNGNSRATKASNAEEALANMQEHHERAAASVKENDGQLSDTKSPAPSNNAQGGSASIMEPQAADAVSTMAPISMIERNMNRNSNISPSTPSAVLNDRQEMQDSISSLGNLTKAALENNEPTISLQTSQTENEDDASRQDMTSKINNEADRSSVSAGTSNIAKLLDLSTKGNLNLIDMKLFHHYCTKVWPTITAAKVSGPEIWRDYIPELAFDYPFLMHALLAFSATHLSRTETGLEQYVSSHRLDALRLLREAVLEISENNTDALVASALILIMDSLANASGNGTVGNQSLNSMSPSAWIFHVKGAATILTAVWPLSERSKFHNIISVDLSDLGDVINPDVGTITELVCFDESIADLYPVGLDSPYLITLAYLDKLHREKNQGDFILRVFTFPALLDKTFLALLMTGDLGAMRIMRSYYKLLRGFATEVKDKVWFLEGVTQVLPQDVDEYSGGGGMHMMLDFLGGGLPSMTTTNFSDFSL
In short: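 Yeast transcription factors, full-length or as DNA-binding domains, were expressed with a GST tag using PURExpress in vitro transcription/translation. At about 100-200 nM they were applied to universal all-10-mer Agilent arrays, double-stranded by primer extension on fresh or once-stripped slides. Fluorescent anti-GST detected bound protein, and masliner normalised the scans. E-scores for ungapped eight-base words, pooled with reverse complements, came from the Universal PBM Analysis Suite.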

| Sequence | PBM E-score |
| --- | --- |
| ATCGTGCG | 0.259 |
| CGAACTGA | -0.0113 |
| CGGAGACG | -0.00701 |
| CGCCACTA | -0.193 |
| TCCACAGA | -0.123 |
| GAACTCCA | -0.103 |
| GCAGATAA | -0.0652 |
| AATTATGA | -0.0252 |
| CCAAGTCG | -0.0095 |
| CCCACCTC | -0.0334 |
| GAGACAGC | -0.181 |
| AGCTTACG | 0.336 |
| CGAAGTCC | -0.0584 |
| ATATACGC | 0.387 |
| TGCCCGCA | 0.0619 |
| GCCGCTGA | -0.198 |
| AATGCTGA | -0.354 |
| GACCCTCA | -0.386 |
| GTATAAGA | 0.395 |
| AGAGGAAC | -0.152 |
| CTCCTCCA | -0.239 |
| ATGAATAG | -0.0435 |
| AGCGTTAG | -0.0103 |
| CCCTTAGG | -0.121 |
| GTGAAAAA | 0.00944 |

| Sequence | PBM E-score |
| --- | --- |
| CAATCGAC | -0.125 |
| ACGAGAGT | 0.332 |
| GTTATTTA | 0.142 |
| AGCTTAGC | -0.0511 |
| AAAGCTGA | -0.126 |
| AGGTTTCC | -0.0773 |
| AGGCTGAC | -0.101 |
| CCATAATC | -0.0914 |
| ATGCCGTG | -0.164 |
| AAGCTAGC | -0.0164 |
| ATGAACAG | -0.0232 |
| CAGGCGTC | -0.0547 |
| ACTGACAG | 0.161 |
| GAAGTTGA | 0.0259 |
| AAGGGTAT | -0.083 |
| CGACCGAA | 0.0722 |
| CAGAGAAG | 0.059 |
| GGAATAGA | -0.163 |
| GCCCGTAA | 0.278 |
| AGATCTAA | -0.0877 |
| AGAGTGCG | 0.0695 |
| CAATGCCC | -0.124 |
| CACCGATC | -0.0123 |
| AGGTGAAA | 0.0164 |
| ACTCACAA | -0.0892 |

| Sequence | PBM E-score |
| --- | --- |
| AATTCATG | 0.0851 |
| CCACAAGG | -0.327 |
| GCGGATCC | -0.0159 |
| CCACTAGC | -0.216 |
| CCATAGAG | -0.304 |
| GCCGTTCA | 0.31 |
| GAGACCTA | -0.0109 |
| ACCACAAT | 0.00119 |
| GAACGCGC | 0.234 |
| GCGACGAC | -0.0205 |
| AGAGTGGA | -0.257 |
| AACGCCAC | -0.0129 |
| CATGATTA | 0.0966 |
| CAAAGACG | -0.267 |
| ACTACCCG | 0.0174 |
| AAAGCAGC | -0.0921 |
| CTCATCGA | 0.0301 |
| GCCGCCGC | -0.199 |
| ATGCCGAC | -0.0823 |
| ATGGGGAC | -0.207 |
| ACCTCTCA | -0.205 |
| CTACTAAC | -0.0374 |
| ACACAGAT | -0.068 |
| CCCAGCGA | -0.0488 |
| GGCCAACA | -0.0678 |

| Sequence | PBM E-score |
| --- | --- |
| CAGCAATG | -0.195 |
| AGACGGTG | -0.109 |
| CAAGACAG | -0.356 |
| ACGAGTTC | 0.342 |
| CTACCTTC | -0.0586 |
| GGCCCTCA | -0.302 |
| AGCCCTGG | -0.22 |
| GCCACTAC | -0.0719 |
| ACACATTA | 0.102 |
| ACGCATAA | 0.172 |
| AAACTGGC | -0.203 |
| ATCAGAAC | 0.0734 |
| AGGGGGTA | -0.251 |
| AGCTGGCA | -0.13 |
| CCTTGCGA | -0.195 |
| GGCACGTA | 0.133 |
| AGTCGGAG | -0.179 |
| GCAACGGC | -0.117 |
| ATACGGGG | 0.411 |
| CTTTCGAC | -0.0443 |
| GCCTTCAA | -0.221 |
| ATATCGCC | -0.0125 |
| AGTGCATG | -0.0727 |
| AACACACT | 0.0379 |
| CCTAGCGC | -0.228 |

| Sequence | PBM E-score |
| --- | --- |
| CAACCGTC | -0.0306 |
| ACTTTCAC | -0.0835 |
| ATTATACC | 0.144 |
| TAGCCAAA | 0.0938 |
| ATATTGCA | 0.114 |
| TGACCCAA | -0.204 |
| CTCTAGTC | -0.141 |
| AATAGTAG | -0.0499 |
| AAAGTACG | 0.305 |
| GTCATACA | -0.119 |
| GTTTGATA | 0.132 |
| CGCAATTA | -0.00479 |
| ACAAAGCT | -0.0598 |
| GGATCGTA | 0.422 |
| GTCGGCTA | 0.0283 |
| CTATCAGC | -0.151 |
| CCATTGAA | -0.00183 |
| ATTACGTG | -0.118 |
| CGCTTACG | 0.372 |
| GGATCTAA | 0.00023 |
| ACACTCCA | -0.00609 |
| CTAACCCC | -0.306 |
| GAGGGATA | 0.0343 |
| CTCATGAC | -0.00923 |
| AGACGGCG | -0.0186 |

| Sequence | PBM E-score |
| --- | --- |
| CCAAGCAG | -0.234 |
| AGGCGTGG | -0.205 |
| AACCAGTC | -0.105 |
| AATCTGTG | -0.122 |
| AACTAGCG | 0.0976 |
| ACACGTCA | -0.184 |
| ATTCCTCA | -0.0423 |
| CCGAAACA | 0.197 |
| CTTGACTA | -0.107 |
| AGCTGGAA | -0.109 |
| AGTCTTTA | -0.0445 |
| AGTATCAT | 0.152 |
| CTCGCGAC | 0.153 |
| CCAAGACA | -0.167 |
| TACGGGCA | 0.351 |
| ATAGATAG | -0.199 |
| ACGCACAT | 0.251 |
| CCACCCTC | -0.0806 |
| CCCAGGAA | -0.135 |
| ATGCCGAA | 0.0644 |
| GAAGACGA | 0.102 |
| ACGTTGCA | 0.12 |
| ATTCGAAT | 0.0538 |
| CTTGGCTA | -0.234 |
| AACCTGTA | 0.118 |

| Sequence | PBM E-score |
| --- | --- |
| GACCCCGC | -0.0436 |
| ACTATTTG | -0.13 |
| AGTGGACG | 0.0343 |
| CGAAGCCA | 0.0563 |
| AGGTACAA | -0.153 |
| ATTCCGAC | -0.0912 |
| AACCACAA | -0.077 |
| GCGCCTTA | 0.0151 |
| GTAACTAC | 0.0797 |
| AAATCTCT | 0.0268 |
| CGACAGAC | 0.101 |
| CGGAGGCA | -0.0797 |
| ACGTTCCA | 0.116 |
| ACGCAATC | 0.0471 |
| CCTGGACG | -0.214 |
| AACTAGGT | -0.132 |
| AGCAATTA | 0.025 |
| AACTGAGG | -0.0146 |
| GGTGAACA | -0.288 |
| AATGACTG | -0.197 |
| AGACTAAT | -0.24 |
| ACCAGATA | 0.118 |
